Assay results taken from patent US20110124589A1, “INHALED FOSFOMYCIN/TOBRAMYCIN FOR THE TREATMENT OF CHRONIC OBSTRUCTIVE PULMONARY DISEASE” (Gilead Sciences, Inc., priority 2009, published 2011).
Converted amounts (≈) assume the structure as drawn. Where two headings read alike, the source gives them in different places.

Tests used:
E. faecalis = conditions: 5 isolates; agar dilution; cited from earlier work
S. aureus = conditions: 16 isolates; agar dilution; cited from earlier work
[1] = tested on: E. coli, Proteus spp., Salmonella spp., Shigella spp., and S. marcescens; conditions: cited from earlier work
P. aeruginosa ATCC 27853 [2] = assay: Single-step spontaneous mutation frequency; format: cell-based; conditions: for MIC: Pseudomonas aeruginosa, ATCC27853; for Mutation Frequency 4X MIC / Mutation Frequency 8X MIC / Mutation Frequency 16X MIC: single exposure, 48 hr
S. aureus ATCC 29213 [3] = assay: Single-step spontaneous mutation frequency; format: cell-based; conditions: for MIC: Staphylococcus aureus, ATCC29213; for Mutation Frequency 4X MIC / Mutation Frequency 8X MIC / Mutation Frequency 16X MIC: single exposure, 48 hr
S. pneumoniae = conditions: cited from earlier work; for Range of MBC/MIC: 7 strains
[4] = tested on: P. aeruginosa protein synthesis; assay: Protein synthesis, incorporation of 3H amino acids; format: cell-based, P. aeruginosa ATCC 27853; conditions: fosfomycin 6.4 μg/mL, tobramycin 1.6 μg/mL; for T1/2, time to inhibit 50% of protein synthesis: FTI 6.4-1.6 μg/mL, 2% mucin; for protein synthesis inhibition relative to FTI: after 60 and 90 minutes of drug exposure
P. aeruginosa [5] = assay: MIC, agar-plate dilution (Method A); conditions: Pseudomonas aeruginosa; for MIC50: read-out: MIC50 Mucin (−)
P. aeruginosa [6] = conditions: cited from earlier work
E. coli ATCC 25922 = assay: MBC/MIC, broth microdilution
E. coli = conditions: 22 isolates; agar dilution; cited from earlier work
M. catarrhalis = assay: MIC, agar-plate dilution (Method A)
Enterobacter spp = assay: MIC of recent clinical isolates, agar dilution (CMI study); format: cell-based; conditions: 603 isolates
S. maltophilia = conditions: 17 isolates; agar dilution; cited from earlier work
P. aeruginosa ATCC 27853 [7] = assay: Bacterial uptake of 3H-tobramycin; format: cell-based; conditions: addition of 10 μg/mL fosfomycin; 3H-tobramycin 2.3 mg/L
S. aureus ATCC 29213 [8] = assay: MBC/MIC, broth microdilution
P. aeruginosa [9] = assay: microbe, parasite or virus in culture; format: cell-based
[10] = tested on: S. aureus, S. pneumoniae, P. aeruginosa, E. coli, Klebsiella spp. and H. influenzae strains; conditions: all strains tested; cited from earlier work
[11] = after parenteral administration; cited from earlier work
[12] = tested on: susceptible P. aeruginosa; conditions: typical values; cited from earlier work

In the case of `C[C@@H]1O[C@@H]1P(=O)(O)O` [Fosfomycin], the MIC range (E. faecalis) is given as 32 µg/mL (≈ 232 µM), the MIC50 (S. aureus) is given as 2 µg/mL (≈ 14.5 µM) and the MIC90 (S. aureus) is given as 4 µg/mL (≈ 29 µM). For the same molecule, the MIC range (S. aureus) was 0.125 to 16 µg/mL, the “fosfomycin concentrations at which generally inhibited” value [1] was 64 µg/mL and the MIC (P. aeruginosa ATCC 27853 [2]) was 4 µg/mL (≈ 29 µM). For the same molecule, the “Mutation Frequency 4X MIC” value (P. aeruginosa ATCC 27853 [2]) was 7.2 × 10^−4, the “Mutation Frequency 8X MIC” value (P. aeruginosa ATCC 27853 [2]) was 1.1 × 10^−5 and the “Mutation Frequency 16X MIC” value (P. aeruginosa ATCC 27853 [2]) was 7.2 × 10^−5. For the same molecule, the MIC (S. aureus ATCC 29213 [3]) was 2 µg/mL (≈ 14.5 µM), the “Mutation Frequency 4X MIC” value (S. aureus ATCC 29213 [3]) was 2.6 × 10^−8 and the “Mutation Frequency 8X MIC” value (S. aureus ATCC 29213 [3]) was 5.0 × 10^−8. The “Mutation Frequency 16X MIC” value (S. aureus ATCC 29213 [3]) was <1.8 × 10^−10, the “Range of MBC/MIC” value (S. pneumoniae) was 1-16 and the “strains against which bactericidal” value (S. pneumoniae) was 86%. For the same molecule, the “T1/2, time to inhibit 50% of protein synthesis” value [4] was 2.42 h, the “protein synthesis inhibition relative to FTI” value [4] was “poor protein synthesis inhibition” and the MIC50 (P. aeruginosa [5]) was 64 µg/mL (≈ 464 µM). The MIC (P. aeruginosa [5]; strain COR-003) was 16 µg/mL (≈ 116 µM), the MIC (P. aeruginosa [5]; strain COR-021) was 8 µg/mL (≈ 57.9 µM) and the “strains against which bactericidal” value (P. aeruginosa [6]) was 78%. The “Range of MBC/MIC” value (P. aeruginosa [6]; non-CF, 10 strains) was 2-8, the MBC/MIC (E. coli ATCC 25922) was 8 and the MIC50 (E. coli) was 0.5 µg/mL (≈ 3.62 µM). For the same molecule, the MIC90 (E. coli) was 2 µg/mL (≈ 14.5 µM), the MIC range (E. coli) was 0.25 to 4 µg/mL and the MIC (M. catarrhalis; Moraxella catarrhalis) was 4 µg/mL (≈ 29 µM). It also gave an MIC (M. catarrhalis; strain COR-113) of 4 µg/mL (≈ 29 µM), an MIC50 (Enterobacter spp) of 2 µg/mL and an MIC90 (Enterobacter spp) of 32 µg/mL. For the same molecule, the MIC50 (S. maltophilia) was 64 µg/mL (≈ 464 µM), the MIC90 (S. maltophilia) was 128 µg/mL (≈ 927 µM) and the “increase in 3H-tobramycin uptake relative to the no-fosfomycin control” value (P. aeruginosa ATCC 27853 [7]) was 170%. The MBC/MIC (S. aureus ATCC 29213 [8]) was 1, the “Mutation Frequency 4x MIC” value (P. aeruginosa [9]; Mucin + (2%)) was 7 × 10^−6 and the “Mutation Frequency 8x MIC” value (P. aeruginosa [9]; Mucin + (2%)) was 3 × 10^−6. For the same molecule, the “Mutation Frequency 16x MIC” value (P. aeruginosa [9]; Mucin + (2%)) was 3 × 10^−6, the “Mutation Frequency 32x MIC” value (P. aeruginosa [9]; Mucin + (2%)) was 2 × 10^−6 and the “Mutation Frequency 4x MIC” value (P. aeruginosa [9]; Mucin −) was 3 × 10^−5. For the same molecule, the “Mutation Frequency 8x MIC” value (P. aeruginosa [9]; Mucin −) was 8 × 10^−6, the “Mutation Frequency 16x MIC” value (P. aeruginosa [9]; Mucin −) was 3 × 10^−6 and the “Mutation Frequency 32x MIC” value (P. aeruginosa [9]; Mucin −) was 3 × 10^−6. For the same molecule, the MIC (P. aeruginosa [9]; Pseudomonas aeruginosa) was 4 µg/mL (≈ 29 µM).

In the case of `NC[C@H]1O[C@H](O[C@H]2[C@H](O)[C@@H](O[C@H]3O[C@H](CO)[C@@H](O)[C@H](N)[C@H]3O)[C@H](N)C[C@@H]2N)[C@H](N)C[C@@H]1O` [Tobramycin], the MIC50 (S. aureus) is given as 0.5 µg/mL (≈ 1.07 µM), the MIC90 (S. aureus) is given as 256 µg/mL (≈ 548 µM) and the MBC/MIC ratios [10] is given as 8. The MIC (P. aeruginosa ATCC 27853 [2]) was 0.5 µg/mL (≈ 1.07 µM), the “Mutation Frequency 4X MIC” value (P. aeruginosa ATCC 27853 [2]) was 3.0 × 10^−5 and the “Mutation Frequency 8X MIC” value (P. aeruginosa ATCC 27853 [2]) was 2.2 × 10^−7. The “Mutation Frequency 16X MIC” value (P. aeruginosa ATCC 27853 [2]) was 1.6 × 10^−8, the MIC (S. aureus ATCC 29213 [3]) was 0.25 µg/mL (≈ 0.535 µM) and the “Mutation Frequency 4X MIC” value (S. aureus ATCC 29213 [3]) was 1.6 × 10^−7. The “Mutation Frequency 8X MIC” value (S. aureus ATCC 29213 [3]) was 3.9 × 10^−8, the “Mutation Frequency 16X MIC” value (S. aureus ATCC 29213 [3]) was <1.8 × 10^−10 and the “Range of MBC/MIC” value (S. pneumoniae) was 1-2. For the same molecule, the “strains against which bactericidal” value (S. pneumoniae) was 100%, the “T1/2, time to inhibit 50% of protein synthesis” value [4] was > 3 h and the “protein synthesis inhibition relative to FTI” value [4] was “poor protein synthesis inhibition”. For the same molecule, the MIC50 (P. aeruginosa [5]) was 2 µg/mL (≈ 4.28 µM), the MIC90 (P. aeruginosa [5]; read-out: MIC90 Mucin (−)) was 16 µg/mL (≈ 34.2 µM) and the MIC (P. aeruginosa [5]; strain COR-003) was 0.5 µg/mL (≈ 1.07 µM). For the same molecule, the MIC (P. aeruginosa [5]; strain COR-021) was 64 µg/mL (≈ 137 µM), the MIC (P. aeruginosa [5]; strain COR-027) was 0.5 µg/mL (≈ 1.07 µM) and the “Range of MBC/MIC” value (P. aeruginosa [6]; CF, 8 strains) was 1-4. The “strains against which bactericidal” value (P. aeruginosa [6]) was 100%, the “Range of MBC/MIC” value (P. aeruginosa [6]; non-CF, 10 strains) was 1-2 and the MBC/MIC (E. coli ATCC 25922) was 1. For the same molecule, the plasma half-life [11] was 1 to 2 h, the MIC50 (E. coli) was 1 µg/mL (≈ 2.14 µM) and the MIC90 (E. coli) was 1 µg/mL (≈ 2.14 µM). The MIC range (E. coli) was 0.5 to 1 µg/mL, the MIC (M. catarrhalis; Moraxella catarrhalis) was 8 µg/mL (≈ 17.1 µM) and the MIC (M. catarrhalis; strain COR-113) was 8 µg/mL (≈ 17.1 µM). For the same molecule, the MIC50 (Enterobacter spp) was 0.5 µg/mL, the MIC90 (Enterobacter spp) was 8 µg/mL and the MIC50 (S. maltophilia) was 64 µg/mL (≈ 137 µM). The MIC90 (S. maltophilia) was 256 µg/mL (≈ 548 µM), the MBC/MIC (S. aureus ATCC 29213 [8]) was 8 and the “Mutation Frequency 4x MIC” value (P. aeruginosa [9]; Mucin + (2%)) was “no effect”. For the same molecule, the “Mutation Frequency 8x MIC” value (P. aeruginosa [9]; Mucin + (2%)) was “no effect”, the “Mutation Frequency 16x MIC” value (P. aeruginosa [9]; Mucin + (2%)) was 2 × 10^−5 and the “Mutation Frequency 32x MIC” value (P. aeruginosa [9]; Mucin + (2%)) was 2 × 10^−6. For the same molecule, the “Mutation Frequency 4x MIC” value (P. aeruginosa [9]; Mucin −) was 4 × 10^−7, the “Mutation Frequency 8x MIC” value (P. aeruginosa [9]; Mucin −) was 9 × 10^−8 and the “Mutation Frequency 16x MIC” value (P. aeruginosa [9]; Mucin −) was >5 × 10^−9. The “Mutation Frequency 32x MIC” value (P. aeruginosa [9]; Mucin −) was >5 × 10^−9 and the MICs [12] was “less than 2 μg/ml”.
